# Assay results taken from the supplement of paper PMC8728848.
# The other results are listed elsewhere or left out.
# B1: LSectin (Mus musculus), Q8BNX1 (protein)
# chain: MNTGEYNKLGSAIEEVSRGQLGRWECYKQRLFFLVLALLVATVLWALILSTLLSSASSKLRVLLSHQDLLRTNASEQKMTLSSLKDDIGACRNCCSVTKAQLQTTLAEFKDIQAKLMEQESILKELQERVTQDLAKASRDRENIRSELFQALEAVKRQNSSCEQCPPSWLPFQGSCYYFSETQATWDTAQSYCGGQGAHLVIVRGLNEQGFLSQHTRGRGYWLGLRAVRHLNKIQGYRWVDGASLNFSHWNSGEPNDSRGHEDCIMMLHSGLWNDAPCTNERDGWICEKRSSCY
# How the values were obtained:
# Test in all cases: glycan array binding signal (z-score within array); higher = stronger binding
# Conditions in all cases: glycan notation: IUPAC condensed, linker removed
# Gal(a1-3)Gal(b1-4)GlcNAc = molecular target: Gal(a1-3)Gal(b1-4)GlcNAc
# Method in brief: (§1)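 Glycan array data came from 3228 arrays in the Consortium for Functional Glycomics database, and only arrays with an available protein sequence were kept. Glycan names were put into IUPAC-condensed notation, and columns mapping to the same glycan were averaged. The binding signal is a within-array Z-score, averaged across arrays of one protein sequence run at different concentrations or buffers and across linkers. A negative Z-score can be read as non-binding.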
# [1] = molecular target: Gal(a1-3)Gal(b1-4)GlcNAc(b1-3)GalNAc
# Method in brief: as §1
# [2] = molecular target: Gal(a1-3)Gal(b1-4)[Fuc(a1-3)]GlcNAc
# Method in brief: as §1
# [3] = molecular target: Gal(a1-3)Gal(b1-4)[Fuc(a1-3)]GlcNAc(b1-2)Man(a1-3)[Gal(a1-3)Gal(b1-4)[Fuc(a1-3)]GlcNAc(b1-2)Man(a1-6)]Man(b1-4)GlcNAc(b1-4)GlcNAc
# Method in brief: as §1
# Gal(a1-3)GalNAc = molecular target: Gal(a1-3)GalNAc
# Method in brief: as §1
# [4] = molecular target: Gal(a1-3)[Gal(a1-4)]Gal(b1-4)GlcNAc
# Method in brief: as §1
# [5] = molecular target: Gal(a1-4)Gal(b1-3)GlcNAc(b1-2)Man(a1-3)[Gal(a1-4)Gal(b1-3)GlcNAc(b1-2)Man(a1-6)]Man(b1-4)GlcNAc(b1-4)GlcNAc
# Method in brief: as §1
# Gal(a1-4)Gal(b1-4)Glc = molecular target: Gal(a1-4)Gal(b1-4)Glc
# Method in brief: as §1
# Gal(a1-4)Gal(b1-4)GlcNAc = molecular target: Gal(a1-4)Gal(b1-4)GlcNAc
# Method in brief: as §1
# [6] = molecular target: Gal(a1-4)Gal(b1-4)GlcNAc(b1-2)Man(a1-3)[Gal(a1-4)Gal(b1-4)GlcNAc(b1-2)Man(a1-6)]Man(b1-4)GlcNAc(b1-4)GlcNAc
# Method in brief: as §1
# [7] = molecular target: Gal(a1-4)Gal(b1-4)GlcNAc(b1-3)Gal(b1-4)Glc
# Method in brief: as §1
# Gal(a1-4)GlcNAc = molecular target: Gal(a1-4)GlcNAc
# Method in brief: as §1
# Gal(a1-6)Glc = molecular target: Gal(a1-6)Glc
# Method in brief: as §1
# Gal(b1-2)Gal = molecular target: Gal(b1-2)Gal
# Method in brief: as §1
# Gal(b1-3)Gal = molecular target: Gal(b1-3)Gal
# Method in brief: as §1
# Gal(b1-3)Gal(b1-4)GlcNAc = molecular target: Gal(b1-3)Gal(b1-4)GlcNAc
# Method in brief: as §1
# [8] = molecular target: Gal(b1-3)Gal(b1-4)GlcNAc(b1-2)Man(a1-3)[Gal(b1-3)Gal(b1-4)GlcNAc(b1-2)Man(a1-6)]Man(b1-4)GlcNAc(b1-4)GlcNAc
# Method in brief: as §1
# Gal(b1-3)GalNAc = molecular target: Gal(b1-3)GalNAc
# Method in brief: as §1
# [9] = molecular target: Gal(b1-3)GalNAc(a1-3)[Fuc(a1-2)]Gal(b1-4)Glc
# Method in brief: as §1
# [10] = molecular target: Gal(b1-3)GalNAc(a1-3)[Fuc(a1-2)]Gal(b1-4)GlcNAc
# Method in brief: as §1
# [11] = molecular target: Gal(b1-3)GalNAc(b1-3)Gal(a1-4)Gal(b1-4)Glc
# Method in brief: as §1
# [12] = molecular target: Gal(b1-3)GalNAc(b1-4)Gal(b1-4)Glc
# Method in brief: as §1
# [13] = molecular target: Gal(b1-3)GalNAc(b1-4)[Neu5Ac(a2-3)]Gal(b1-4)Glc
# Method in brief: as §1
# Gal(b1-3)GlcNAc = molecular target: Gal(b1-3)GlcNAc
# Method in brief: as §1
# [14] = molecular target: Gal(b1-3)GlcNAc(a1-6)Gal(b1-4)GlcNAc
# Method in brief: as §1
# [15] = molecular target: Gal(b1-3)GlcNAc(b1-2)Man(a1-3)[Gal(b1-3)GlcNAc(b1-2)Man(a1-6)]Man(b1-4)GlcNAc(b1-4)GlcNAc
# Method in brief: as §1
# [16] = molecular target: Gal(b1-3)GlcNAc(b1-2)Man(a1-3)[Gal(b1-3)GlcNAc(b1-2)Man(a1-6)]Man(b1-4)GlcNAc(b1-4)[Fuc(a1-6)]GlcNAc
# Method in brief: as §1
# [17] = molecular target: Gal(b1-3)GlcNAc(b1-2)[Gal(b1-3)GlcNAc(b1-6)]Man(a1-6)[Gal(b1-3)GlcNAc(b1-2)Man(a1-3)]Man(b1-4)GlcNAc(b1-4)GlcNAc
# Method in brief: as §1
# [18] = molecular target: Gal(b1-3)GlcNAc(b1-3)Gal(b1-3)GlcNAc
# Method in brief: as §1
# [19] = molecular target: Gal(b1-3)GlcNAc(b1-3)Gal(b1-4)Glc
# Method in brief: as §1
binder,measurement,setting,value
B1,glycan array binding signal (z-score),Gal(a1-3)Gal(b1-4)GlcNAc,-0.186
same,glycan array binding signal (z-score),[1],-0.19
same,glycan array binding signal (z-score),[2],-0.171
same,glycan array binding signal (z-score),[3],-0.185
same,glycan array binding signal (z-score),Gal(a1-3)GalNAc,-0.147
same,glycan array binding signal (z-score),[4],-0.143
same,glycan array binding signal (z-score),[5],-0.154
same,glycan array binding signal (z-score),Gal(a1-4)Gal(b1-4)Glc,-0.176
same,glycan array binding signal (z-score),Gal(a1-4)Gal(b1-4)GlcNAc,-0.176
same,glycan array binding signal (z-score),[6],-0.18
same,glycan array binding signal (z-score),[7],-0.183
same,glycan array binding signal (z-score),Gal(a1-4)GlcNAc,-0.149
same,glycan array binding signal (z-score),Gal(a1-6)Glc,-0.184
same,glycan array binding signal (z-score),Gal(b1-2)Gal,-0.156
same,glycan array binding signal (z-score),Gal(b1-3)Gal,-0.161
same,glycan array binding signal (z-score),Gal(b1-3)Gal(b1-4)GlcNAc,-0.177
same,glycan array binding signal (z-score),[8],-0.148
same,glycan array binding signal (z-score),Gal(b1-3)GalNAc,-0.18
same,glycan array binding signal (z-score),[9],-0.188
same,glycan array binding signal (z-score),[10],-0.188
same,glycan array binding signal (z-score),[11],-0.187
same,glycan array binding signal (z-score),[12],-0.182
same,glycan array binding signal (z-score),[13],-0.165
same,glycan array binding signal (z-score),Gal(b1-3)GlcNAc,-0.132
same,glycan array binding signal (z-score),[14],-0.188
same,glycan array binding signal (z-score),[15],0.382
same,glycan array binding signal (z-score),[16],0.186
same,glycan array binding signal (z-score),[17],0.121
same,glycan array binding signal (z-score),[18],-0.18
same,glycan array binding signal (z-score),[19],-0.172
